Test results: PubChem BioAssay AID488969 (Vanderbilt High Throughput Screening Facility, 2010)
Whole data set: some 110,000 compounds, median “z-score” near -0.1, cut for the highest 2% near 2. Some of the results follow.

Biological target: Metabotropic glutamate receptor 8 (Rattus norvegicus) (UniProt P70579)
Test: mGluR8 Gi/Go-coupled signaling modulation – cell-based, rat, thallium flux, HTS, primary screen (AID 488969)
Details: HEK293 rat mGluR8, GIRK (G protein-gated inwardly rectifying potassium channel) thallium flux, FluoZin2; at 10 µM; stronger effect = higher value; submaximal glutamate (EC20) added with thallium

UniProt P70579, sequence (P70579 whole entry, looked up): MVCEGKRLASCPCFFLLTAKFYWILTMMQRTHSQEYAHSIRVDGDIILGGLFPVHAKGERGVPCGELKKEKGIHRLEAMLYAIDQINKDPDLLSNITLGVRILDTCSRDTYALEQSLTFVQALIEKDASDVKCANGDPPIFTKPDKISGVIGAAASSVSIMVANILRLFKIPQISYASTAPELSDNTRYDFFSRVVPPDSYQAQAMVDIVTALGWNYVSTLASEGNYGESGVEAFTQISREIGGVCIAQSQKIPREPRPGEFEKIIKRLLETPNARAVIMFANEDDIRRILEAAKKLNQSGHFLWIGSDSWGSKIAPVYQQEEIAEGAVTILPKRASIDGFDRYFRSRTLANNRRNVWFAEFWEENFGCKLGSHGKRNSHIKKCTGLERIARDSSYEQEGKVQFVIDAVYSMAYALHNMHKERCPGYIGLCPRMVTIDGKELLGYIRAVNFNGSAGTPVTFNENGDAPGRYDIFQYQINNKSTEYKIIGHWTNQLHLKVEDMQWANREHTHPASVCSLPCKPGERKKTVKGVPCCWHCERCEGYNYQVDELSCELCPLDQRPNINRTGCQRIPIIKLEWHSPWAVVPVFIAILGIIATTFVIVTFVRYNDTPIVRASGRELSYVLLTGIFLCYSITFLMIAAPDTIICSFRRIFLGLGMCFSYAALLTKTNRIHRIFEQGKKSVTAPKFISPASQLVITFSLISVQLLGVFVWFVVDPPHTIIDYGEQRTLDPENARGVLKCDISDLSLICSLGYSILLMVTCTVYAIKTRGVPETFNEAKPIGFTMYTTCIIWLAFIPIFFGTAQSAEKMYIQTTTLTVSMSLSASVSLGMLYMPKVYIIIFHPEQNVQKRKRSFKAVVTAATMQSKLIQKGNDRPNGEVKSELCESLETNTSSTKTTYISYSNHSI

Row | Structure (SMILES) | z-score
1 | O=C(NCCN1CCOCC1)c1ccc2c(c1)ncn2C1CCCCC1 | -0.67
2 | C=CCn1c(CNc2ccc(C)cc2)nnc1SCC(=O)N/N=C/c1ccc(O)cc1 | -0.147
3 | Cc1ccc(NC(=S)Nc2ccc3nc(-c4ccccn4)c(-c4ccccn4)nc3c2)cc1C | -0.183
4 | CCN(CC)CCNC(=O)Cn1c(-c2ccccn2)nc2ccccc21 | -1.21
5 | C=CCNC(=S)Nc1ccccc1 | 0.552
6 | CC1CCCCN1C(=O)Cn1cc(C#N)c2ccccc21 (stereo not drawn) | -0.0675
7 | CC1CCC(NC(=O)Cn2c3c(c(-c4ccccc4Cl)cc2=O)CCC3)CC1 (stereo not drawn) | -0.274
8 | CN(C)S(=O)(=O)c1ccc(C(=O)Nc2ccccc2C(=O)O)cc1 | -0.317
9 | COc1ccccc1NC1=NCC(=O)N1Cc1ccccc1 | -0.136
10 | COc1ccc(C2C3=C(Nc4ncnn42)c2ccccc2CC3)cc1OC (stereo not drawn) | -2.34
11 | O=C(NNC(=O)c1sc2cccc(Cl)c2c1Cl)NC1CCCCC1 | 0.896
12 | N#Cc1sc2nc3c(c(-c4cccnc4)c2c1N)CCC3 | -0.553
13 | O=C(CCN1C(=O)c2cccc3cccc(c23)C1=O)N1CCN(Cc2ccc3c(c2)OCO3)CC1 | 0.0513
14 | Cc1ccc(OCC(=O)Nn2cnc3ccccc32)cc1 | 0.228
15 | CCOC(=O)CC1=NN(c2ccccc2)C(=O)/C1=C\c1ccc(OC)cc1OC | 0.064
16 | CC(NC(=O)c1cc(-c2ccc3c(c2)OCO3)nc2ccccc12)C(C)(C)C (stereo not drawn) | -0.477
17 | N#Cc1ccccc1NC(=O)COC(=O)c1ccc(S(=O)(=O)N2CCCC2)cc1 | -1
18 | CCOC(=O)c1sc(NC(=O)CSc2nncs2)c(C(=O)OCC)c1C | 0.994
19 | Clc1ccc(COc2ccccn2)c(Cl)c1 | -0.186
20 | CCOC(=O)c1nn(-c2ccc(F)cc2)c2nc(CC(C)C)c(C#N)c(=O)n12 | -0.218
21 | O=C1c2cccnc2C(Nc2ccc(S(=O)(=O)N3CCCCCC3)cc2)N1Cc1ccccc1 (stereo not drawn) | 1.19
22 | Cc1onc(-c2c(Cl)cccc2Cl)c1C(=O)NCCCN1CCOCC1 | -0.322
23 | CCOCCOC(=O)c1cccc(NC(=O)OCC)c1 | 0.0997

Row | Structure (SMILES) | z-score
24 | O=C(CCCc1ccccc1)NCc1cn2ccsc2n1 | -0.396
25 | COC(=O)[C@H](C)NC(=O)NC1CCN(Cc2ccccc2)CC1 | 0.292
26 | CCC(C)Sc1nnc(Cc2cc(=O)[nH]c(=O)[nH]2)n1-c1ccc(F)cc1 (stereo not drawn) | -0.203
27 | O=C(O)CCC(=O)N1CCN(c2cccc(Cl)c2)CC1 | 0.125
28 | Cc1cc(=O)oc2ccc(OCC(=O)O)cc12 | -0.48
29 | O=C(NCc1ccc2c(c1)OCO2)c1ccc2c(c1)C(=O)N(Cc1cccnc1)C2=O | -0.239
30 | Cc1ccn2c(NC3CCCCC3)c(C(C)C)nc2c1 | 2.52
31 | O=C(Nc1ccc2c(c1)OCO2)c1cnc2n(c1=O)CCS2 | -0.0822
32 | CC(C)(C)C(=O)Nc1c2c(nc3c1CCC3)CCCC2 | 1.1
33 | Cn1c(SCC(=O)Nc2ccc(N3CCOCC3)c(Cl)c2)nnc1-c1ccccc1 | -0.0676
34 | COC(=O)c1ccc(NC(=S)N2CCN(Cc3cccc(C)c3)CC2)cc1 | -0.381
35 | O=C1C(c2ccccc2)SC(=Nc2ccccc2)N1S(=O)(=O)c1ccccc1 (stereo not drawn) | -0.117
36 | COc1cc2[nH]c3c(N4CCC(C(N)=O)CC4)ncnc3c2cc1OC | -0.277
37 | CCOC(=O)CSc1nnc(Cn2c(=O)sc3ccccc32)n1C | -0.398
38 | Cc1nn(C)cc1C=NCCOCc1ccccc1 | 0.215
39 | COc1cc(N2CCCC2)c(OC)cc1/C=C(/C#N)c1cccc(Br)c1 | -0.124
40 | CCCN(CCO)CCCc1ccccc1 | 0.109
41 | CC(C)(C)NC(=O)C1CCN(S(=O)(=O)c2ccc(Br)cc2)CC1 | -0.0702
42 | CCOC(=O)c1nc2cc3n(c(C)c-2c1C)C(C)C(C)=C3C (stereo not drawn) | -0.0669
43 | Cc1ccccc1-n1nnnc1SCC(N)=O | 0.269
44 | CCn1c2ccccc2c2nnc(SCC(=O)OCN3C(=O)c4ccccc4C3=O)nc21 | -0.087
45 | CC(=O)c1sc(Nc2nc(C)cc(C)n2)nc1C | -0.0137
46 | Cn1c(=O)c2c(-c3ccc(C(C)(C)C)cc3)n(CC3CCCO3)cc2n(C)c1=O (stereo not drawn) | -0.395

Row | Structure (SMILES) | z-score
47 | CCOC(=O)Cc1csc(SCC(=O)N2CCN(c3ccc(OC)cc3)CC2)n1 | 0.248
48 | COc1cc(/C=N/NC(=O)Cn2nc([N+](=O)[O-])cc2C)cc(Br)c1OCc1ccccc1 | 0.716
49 | Nn1c(SCC(=O)Nc2ccc3c(c2)OCCO3)nnc1-c1ccccn1 | -0.0196
50 | COc1cc(CNc2ccc(O)cc2)cc(Br)c1OCc1ccccc1F | -0.906
51 | CCc1ccc(OCCCC(=O)Nc2ccc(N3CCCCC3)cc2)cc1 | -0.107
52 | CC(O)c1cccc(NC2=CC(=O)CC(C)(C)C2)c1 (stereo not drawn) | 0.0574
53 | O=C(Nc1ccc(Oc2cccnc2)cc1)c1ccccc1F | -0.151
54 | O=C(/C=C/c1ccc(N2CCCCC2)c([N+](=O)[O-])c1)c1ccc(S(=O)(=O)N2CCCC2)cc1 | 0.456
55 | O=C(OCCN1C(=O)c2cccc3c(N4CCOCC4)ccc(c23)C1=O)c1ccc(Cl)cc1Cl | -0.884
56 | COc1ccc(OC)c(N2C(=O)CC(Cc3ccc(Cl)cc3)C2=O)c1 (stereo not drawn) | 0.431
57 | COC(=O)c1sccc1N/N=C/c1cccc(OC)c1O | -0.0285
58 | CC1C/C(=N/O)C(C)CN1 (stereo not drawn) | 0.186
59 | CC(C)CNC(=O)c1ccccc1-c1ccccc1C(=O)O | -0.34
60 | Cc1ccc(-c2csc(NC(=O)CSc3ncn(-c4ccccc4)n3)n2)cc1 | -0.309
61 | COc1ccc(C2N(c3ccccc3)C(=S)N3CCCN23)cc1 (stereo not drawn) | -0.394
62 | O=C(Nc1nc(COc2ccccc2)cs1)C12CC3CC(CC(C3)C1)C2 | 0.035
63 | COc1ccc(N/C(=N/c2nc(C)cc(C)n2)NC(=O)Nc2ccc(Cl)c(Cl)c2)c(OC)c1 | -0.0467
64 | CCCCC(CC)COC1(c2ccccc2)OC(=O)c2ccccc21 (stereo not drawn) | 0.744
65 | Cc1ccc(C(=O)CSc2n[nH]c(-c3ccco3)n2)cc1C | 0.0361
66 | c1ccc(Cn2nnc(-c3ccccc3)n2)cc1 | -0.379
67 | O=C(Nc1cccc(Cl)c1)c1ccc(NCCCN2CCOCC2)c([N+](=O)[O-])c1 | -0.0295
68 | CCOC(=O)Cc1csc(NC(=O)CSc2ccc(Br)cc2)n1 | -0.121
69 | Cc1cc(C)nc(NC(N)=NC2CCCCC2)n1 | 0.228

Row | Structure (SMILES) | z-score
70 | CCn1nnnc1SCCSc1nnnn1CC | -0.12
71 | O=C(CO/N=C/c1ccccc1Cl)N1CCCc2ccccc21 | -0.544
72 | COC(=O)c1c(O)c2c([nH]c1=O)CCCC2 | -0.216
73 | Cc1ccc2c(c1)C(=O)c1ccccc1CS2=O (stereo not drawn) | -0.318
74 | O=C(O)CCc1nn2c3ccccc3n(CC(=O)c3ccccc3)c2nc1=O | 0.204
75 | Cc1cc2c(c(=O)n1CCCn1ccnc1)C(c1ccco1)C(C#N)=C(N)O2 (stereo not drawn) | -0.409
76 | COC(=O)c1ccc(C)c(NC(=O)C2COc3ccccc3O2)c1 (stereo not drawn) | 0.298
77 | CCCC(=O)Nc1cc(=O)[nH]c2ncnn12 | -0.498
78 | Cc1cn(C2CC3OCC3O2)c(=O)[nH]c1=O (stereo not drawn) | 0.237
79 | COC(=O)CC(NS(=O)(=O)c1cccs1)c1cccc2ccccc12 (stereo not drawn) | -0.0688
80 | O=C(NCc1nnc(SCc2ccccc2)n1-c1ccccc1)C12CC3CC(CC(C3)C1)C2 | -0.441
81 | COc1cccc(Nc2n[nH]c(=S)s2)c1 | 0.629
82 | CCc1ccc(Oc2coc3cc(OCC(=O)Nc4cc(C)ccc4C)ccc3c2=O)cc1 | 0.0196
83 | CCOc1cc(CNCCO)cc(Br)c1OCc1cccs1 | 0.398
84 | N#Cc1c(Sc2ncc(C(F)(F)F)cc2Cl)nsc1C/C=N\OCc1c(F)cccc1Cl | 0.21
85 | O=C(CNC(=O)c1ccccc1F)NC1CC1 | 1.03
86 | O=S1(=O)CC(NCc2ccccc2)C(Nc2ccccc2)C1 (stereo not drawn) | 2.43
87 | CN(Cc1ccccc1)C(=O)CC(c1ccccc1)c1cc(Cl)ccc1O (stereo not drawn) | -0.0311
88 | CCCCN1CN=C(Nc2nc3ccccc3o2)NC1 | -0.0247
89 | O=C(Nc1ccc2c(c1)OCO2)C(c1ccccc1)N1CCCCC1 (stereo not drawn) | 0.343
90 | O=C(NNC(=O)c1ccc(SCC2CCCO2)c([N+](=O)[O-])c1)c1ccc(F)cc1 (stereo not drawn) | -0.137
91 | CCC1=Nc2cc(C(=O)NCCCOC(C)C)ccc2Sc2ccccc21 | -0.637
92 | O=C(Nc1ccc(-n2ccnc2P(=O)(O)c2ccccc2)cc1)c1ccccc1Cl | 0.472

Row | Structure (SMILES) | z-score
93 | Cc1ccc(C2CC(=O)NC(SCc3ccccc3)=C2C#N)o1 (stereo not drawn) | -0.0432
94 | Cn1c(COc2ccc(Cl)cc2)nnc1SCC(=O)Nc1ccc2c(c1)CCC2 | -0.21
95 | CCOP(=O)(OCC)c1nc(-c2cccc3ccccc23)oc1NCc1ccccc1 | -0.00118
96 | Cc1nc(Cl)c(C(=O)NC(=O)NCc2ccccc2)c(C)c1Cl | -0.0876
97 | CC(=O)N1CCN(Cc2nc3cc(NC(=O)c4ccccc4)ccc3n2C)CC1 | -0.376
98 | C/C(=N\NC(=O)c1ccccn1)C12CC3CC(CC(C3)C1)C2 | -0.4
99 | COc1ccccc1NC(=O)C1CCCN(c2cc(C)nc3ncnn23)C1 (stereo not drawn) | -0.278
100 | C=CCn1c(SCC(=O)Nc2cccc3ccccc23)nc(O)c(CC)c1=O | 0.276
101 | CC(C)COc1ccc(C(=O)OCCN2CCOCC2)c(O)c1 | -0.152
102 | COCC(C)n1c(C)cc(C(=O)COC(=O)c2oc3ccccc3c2C)c1C (stereo not drawn) | -0.927
103 | Cc1ccnc(SCC(=O)Nc2oc(-c3ccccc3)c(-c3ccccc3)c2C#N)n1 | -0.39
104 | CC(=O)NC1CCN(C(=O)N2CCCC2)CC1 | 0.254
105 | COc1ccccc1C(c1nnnn1C(C)(C)C)N1CCN(Cc2ccccc2)CC1 (stereo not drawn) | 0.798
106 | Cc1ccc(-c2noc(CCC(=O)N(C)c3ccccc3C)n2)cc1 | 0.361
107 | CCn1cc(C2Nc3ccccc3C(=O)N2O)c(C)n1 (stereo not drawn) | 0.209
108 | Cc1cc(OCCOc2cccc3cccnc23)c(C)cc1Cl | -0.0542
109 | Cc1ccc(CNC(=O)c2cnccn2)cc1 | -0.218
110 | CC(=C/C(=O)O)/C=C/c1ccc([N+](=O)[O-])cc1 | -0.0461
111 | C=CCNC(=O)CSc1nnc(-c2ccccc2Cl)n1-c1c(C)n(C)n(-c2ccccc2)c1=O | 0.999
112 | Cc1ccc(CNC(=O)CN(Cc2ccccc2)S(C)(=O)=O)cc1 | -0.457
113 | CC(=O)Nc1cccc(-c2cnc3ccccc3n2)c1 | -0.141
